Results published in the supplement of paper PMC4604168 (melanoma cell lines).
The other results are listed elsewhere or left out. Single values are uncertain, as repeats are few or missing.

Key:
Assay in all cases: cell count relative to DMSO control; melanoma cells; higher = more viable cells
Details in all cases: library dose: low library concentration; 72 h
COLO792 = test system: COLO792
COLO800 = test system: COLO800
COLO829 = test system: COLO829
G361 = test system: G361
IPC-298 = test system: IPC-298
IST-MEL1 = test system: IST-MEL1
LB2518-MEL = test system: LB2518-MEL
LOXIMVI = test system: LOXIMVI
MEL-HO = test system: MEL-HO
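Note: cell number obtained by counting DAPI-stained nuclei in high-throughput microscope images with image analysis software, screen run in 1,536-well plates.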

Row | SMILES | cell count (COLO792) | cell count (COLO800) | cell count (COLO829) | cell count (G361) | cell count (IPC-298) | cell count (IST-MEL1) | cell count (LB2518-MEL) | cell count (LOXIMVI) | cell count (MEL-HO)
1 | OCc1c[nH]c2ccccc12 [Indole-3-carbinol] + Oc1cc(-c2nc(-c3ccccc3)[nH]c2-c2ccncc2)ccc1Cl [L779450] (first compound 0.8 µM, partner dose 0.2 µM) | 95.1% | 108% | 109% | 100% | 78.3% | 106% | 103% | 108% | 96.5%
2 | Clc1ccc(Nc2nnc(Cc3ccncc3)c3ccccc23)cc1 [vatalanib] + COC(=O)c1sccc1S(=O)(=O)Nc1ccc(Nc2ccccc2)cc1OC [GSK0660] (first compound 2 µM, partner dose 1 µM) | 106% | 96.4% | 102% | 93.5% | 86.1% | 87.4% | 110% | 107% | 89%
3 | Cn1c(Nc2ccc(C(F)(F)F)cc2)nc2cc(Oc3ccnc(-c4ncc(C(F)(F)F)[nH]4)c3)ccc21 + O=C(CCCCCCC(=O)Nc1ccccc1)NO [vorinostat] (first compound 0.08 µM, partner dose 0.08 µM) | 41.8% | 84.3% | 68% | 51.9% | 54.3% | 92.4% | 31.3% | 58.9% | 71.6%
4 | Clc1ccc(Nc2nnc(Cc3ccncc3)c3ccccc23)cc1 [vatalanib] + O=C(O)c1ccc(-c2c[nH]c3ncc(-c4ccccc4)cc23)cc1C1CCCC1 [GSK650394] (first compound 2 µM, partner dose 0.16 µM) | 88.6% | 63.1% | 82.8% | 76.2% | 96.5% | 80.6% | 98.2% | 91.5% | 64.2%
5 | Cn1c(Nc2ccc(C(F)(F)F)cc2)nc2cc(Oc3ccnc(-c4ncc(C(F)(F)F)[nH]4)c3)ccc21 + NC(=O)Nc1cc(-c2cccc(F)c2)sc1C(=O)N[C@H]1CCCNC1 [AZD7762] (first compound 0.08 µM, partner dose 0.02 µM) | 47% | 66.2% | 117% | 74.8% | 63% | 96.8% | 72% | 95.7% | 83.3%
6 | C#Cc1cccc(Nc2ncnc3cc(OCCOC)c(OCCOC)cc23)c1 [erlotinib] + CO[C@@H]1[C@H](N(C)C(=O)c2ccccc2)C[C@H]2O[C@]1(C)n1c3ccccc3c3c4c(c5c6ccccc6n2c5c31)C(=O)NC4 [Midostaurin] (first compound 0.8 µM, partner dose 0.08 µM) | 77.6% | 71.6% | 118% | 79.3% | 92.8% | 90.1% | 101% | 76.1% | 86.8%
7 | Cn1c(Nc2ccc(C(F)(F)F)cc2)nc2cc(Oc3ccnc(-c4ncc(C(F)(F)F)[nH]4)c3)ccc21 + CC1(C)NC(=O)N(c2ccc([N+](=O)[O-])c(C(F)(F)F)c2)C1=O [nilutamide] (first compound 0.08 µM, partner dose 1 µM) | 34% | 67.7% | 91.2% | 66.6% | 53.6% | 82.9% | 45.9% | 56.3% | 74.2%
8 | OCc1c[nH]c2ccccc12 [Indole-3-carbinol] + c1cc(-c2cnn3cc(-c4ccc(OCCN5CCCCC5)cc4)cnc23)ccn1 [Dorsomorphin] (first compound 0.8 µM, partner dose 0.4 µM) | 87% | 65.9% | 101% | 90% | 106% | 99.8% | 105% | 82.7% | 73.1%
9 | Clc1ccc(Nc2nnc(Cc3ccncc3)c3ccccc23)cc1 [vatalanib] + COc1cc(N2CCC(N3CCN(C)CC3)CC2)ccc1Nc1ncc(Cl)c(Nc2ccccc2S(=O)(=O)C(C)C)n1 [NVP-TAE684] (first compound 2 µM, partner dose 0.08 µM) | 76.9% | 86.2% | 76.8% | 102% | 98.3% | 97% | 117% | 81.6% | 97.6%
10 | C#Cc1cccc(Nc2ncnc3cc(OCCOC)c(OCCOC)cc23)c1 [erlotinib] + COc1cc(Nc2ncc(F)c(Nc3ccc4c(n3)NC(=O)C(C)(C)O4)n2)cc(OC)c1OC [Tamatinib] (first compound 0.8 µM, partner dose 0.4 µM) | 53.8% | 113% | 75.4% | 90.9% | 82.9% | 91.3% | 90.9% | 72.7% | 95.8%
11 | O=C(CCCCCCC(=O)Nc1ccccc1)NO [vorinostat] + Cc1cc(N2CCOCC2)cc2[nH]c(-c3c(NC[C@@H](O)c4cccc(Cl)c4)cc[nH]c3=O)nc12 [BMS536924] (first compound 0.08 µM, partner dose 0.2 µM) | 76.3% | 34% | 97.4% | 85.2% | 100% | 99.8% | 80.2% | 74.6% | 92.3%
12 | Clc1ccc(Nc2nnc(Cc3ccncc3)c3ccccc23)cc1 [vatalanib] + Cn1cncc1[C@@](N)(c1ccc(Cl)cc1)c1ccc2c(c1)c(-c1cccc(Cl)c1)cc(=O)n2C [tipifarnib] (first compound 2 µM, partner dose 0.01 µM) | 84.2% | 95.4% | 80.6% | 70.8% | 86.8% | 82.4% | 82.1% | 96.6% | 92.2%
13 | OCc1c[nH]c2ccccc12 [Indole-3-carbinol] + Oc1nc(-c2ccc(C(F)(F)F)cc2)nc2c1CSCC2 [XAV939] (first compound 0.8 µM, partner dose 2 µM) | 83.9% | 97% | 96.2% | 88.2% | 99.5% | 97.1% | 96.6% | 78.4% | 105%
14 | O=C(CCCCCCC(=O)Nc1ccccc1)NO [vorinostat] + CN(NC(=O)CC(=O)NN(C)C(=S)c1ccccc1)C(=S)c1ccccc1 [STA4783] (first compound 0.08 µM, partner dose 0.006 µM) | 61% | 29.6% | 70.8% | 81.1% | 103% | 85.1% | 60.7% | 177% | 95.8%
15 | Clc1ccc(Nc2nnc(Cc3ccncc3)c3ccccc23)cc1 [vatalanib] + O=C(O)C(=O)Nc1sc2c(c1C(=O)O)CCNC2 [TCS401] (first compound 2 µM, partner dose 1.66667 µM) | 102% | 94.4% | 113% | 85.9% | 101% | 101% | 110% | 114% | 89.1%
16 | Nc1cccc2c1CN(C1CCC(=O)NC1=O)C2=O (stereo unspecified) [lenalidomide] + CN(NC(=O)CC(=O)NN(C)C(=S)c1ccccc1)C(=S)c1ccccc1 [STA4783] (first compound 1 µM, partner dose 0.006 µM) | 62.4% | 57.1% | 57.5% | 85% | 101% | 69.8% | 65.4% | 72.7% | 93.7%
17 | C#Cc1cccc(Nc2ncnc3cc(OCCOC)c(OCCOC)cc23)c1 [erlotinib] + O=C(Nc1cccc(Cl)c1)Nc1ncc(CCNc2ncnc3ccsc23)s1 [SNS314] (first compound 0.8 µM, partner dose 0.0008 µM) | 84.7% | 85.7% | 93.3% | 91.6% | 99.5% | 91.2% | 83.8% | 104% | 91.4%
18 | OCc1c[nH]c2ccccc12 [Indole-3-carbinol] + CN(NC(=O)CC(=O)NN(C)C(=S)c1ccccc1)C(=S)c1ccccc1 [STA4783] (first compound 0.8 µM, partner dose 0.006 µM) | 78.5% | 73.4% | 84.9% | 92.3% | 103% | 78.8% | 74.2% | 71.2% | 98.1%
19 | Clc1ccc(Nc2nnc(Cc3ccncc3)c3ccccc23)cc1 [vatalanib] + CN(C)S(=O)(=O)c1ccc2c(c1)/C(=C/c1cc3c([nH]1)CCCC3)C(=O)N2 [SU6656] (first compound 2 µM, partner dose 0.4 µM) | 83.8% | 59.9% | 79.6% | 84% | 92.7% | 96.3% | 79.6% | 91.8% | 91.7%
20 | OCc1c[nH]c2ccccc12 [Indole-3-carbinol] + Cc1cc(N2CCOCC2)cc2[nH]c(-c3c(NC[C@@H](O)c4cccc(Cl)c4)cc[nH]c3=O)nc12 [BMS536924] (first compound 0.8 µM, partner dose 0.2 µM) | 89.8% | 59.9% | 97.5% | 101% | 94.6% | 97.9% | 113% | 112% | 93.4%
21 | C#Cc1cccc(Nc2ncnc3cc(OCCOC)c(OCCOC)cc23)c1 [erlotinib] + C[C@@H]1CCN(C(=O)CC#N)C[C@@H]1N(C)c1ncnc2[nH]ccc12 [CP690550] (first compound 0.8 µM, partner dose 1 µM) | 84.2% | 90.6% | 87.2% | 96% | 93.9% | 108% | 97% | 81.7% | 94.7%
22 | COCC[n+]1c2c(n(Cc3cnccn3)c1C)C(=O)c1ccccc1C2=O + C[C@@H]1CCN(C(=O)CC#N)C[C@@H]1N(C)c1ncnc2[nH]ccc12 [CP690550] (first compound 0.0004 µM, partner dose 1 µM) | 107% | 77.9% | 66% | 111% | 93.3% | 75.8% | 78.8% | 297% | 93.1%
23 | OCc1c[nH]c2ccccc12 [Indole-3-carbinol] + C[C@@H]1CCN(C(=O)CC#N)C[C@@H]1N(C)c1ncnc2[nH]ccc12 [CP690550] (first compound 0.8 µM, partner dose 1 µM) | 96.8% | 138% | 119% | 104% | 103% | 103% | 87.7% | 110% | 110%
24 | Clc1ccc(Nc2nnc(Cc3ccncc3)c3ccccc23)cc1 [vatalanib] + COc1ccc2c(c1)CCC1C2CCC2(C)C(NCCCCCCN3C(=O)C=CC3=O)CCC12 [U73122] (first compound 2 µM, partner dose 0.4 µM) | 55% | 60.3% | 76.7% | 78.7% | 88.3% | 81.6% | 89.8% | 78.6% | 71.6%
